In all, about 45,000 compounds went through this assay and about 200 (0.44%) were called active. Not shown: some 7% with an inconclusive outcome. Calls follow the shape of the dose curve; as a rule, active = well fitted activation curve with a large enough effect; inconclusive = small, poorly fitted or top-dose-only effect; inactive = no such curve, though single readings can be large or run the other way. This is one part of the list.
test: qHTS of TDP-43 Inhibitors: NCGC Sytravon Library Screen; details: yeast TDP-43 toxicity rescue, BacTiter-Glo growth, 24 h; series mostly up to 46.1 µM; growth rescue (activation): at the top concentration; also: 0% is about no effect; nearly all actives have a fitted effect of over 55% in size
How it was run: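 TDP-43-expressing yeast, pregrown in raffinose, seeded at OD600 0.02 in galactose medium with compound for 24 hr at 30 deg C. Growth read by BacTiter-Glo luminescence, so rescue of toxicity appears as activation.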

Structure (SMILES)	growth rescue (activation)
COc1ccc(-c2[nH]ncc2C(=O)NCc2cccc(Cl)c2)cc1	inactive: 23.3%
Cc1ccc(NCC(=O)N/N=C\c2ccc[nH]2)cc1	inactive: 14.2%
CCc1sc(C(=O)NCCc2ccc(S(N)(=O)=O)cc2)cc1C	inactive: -25.5%
N#Cc1ccc(C(=O)NN2C(=O)NC3(CCCCC3)C2=O)cc1	inactive: -2.28%
CC(=O)c1ccc(N2CCN(C(=O)CCNC(=O)Cn3ccc4ccccc4c3=O)CC2)cc1	inactive: -1.96%
Cc1ccccc1C(=O)N1CCC(C(=O)OCc2ccccn2)CC1	inactive: 11.9%
NC(c1ccccc1)c1csc(Nc2ccc(C(F)(F)F)cn2)n1 (configuration not stated)	inactive: 27.8%
CN(CC(=O)Nc1ccc(S(=O)(=O)N2CCCC2)cc1)Cc1ccc(Cl)cc1Cl	inactive: -5.15%
CCOc1c(S(=O)(=O)NC2CC(C)(C)NC(C)(C)C2)ccc(Cl)c1Cl	inactive: 5.33%
CCC(Sc1nc2cc(OC)c(OC)cc2c(=O)n1Cc1ccc(OC)cc1)C(=O)NCCOC (configuration not stated)	inactive: -3.1%
CCC1CCCCN1CCN1C(=O)C2C(C(=O)Nc3ccc(OC)cc3)C3C=CC2(O3)C1C(=O)NC1CCCCC1 (configuration not stated)	inactive: -6.06%
CNc1cncc(-c2ccccc2CO)n1	inactive: 11.3%
CC(C)Nc1ccc(Nc2ccnc3cc4ccccc4cc23)cc1	inactive: 1.81%
NC(=O)COC(=O)c1ccc2c(c1)S(=O)(=O)c1ccccc1C2=O	inactive: -9.68%
COc1ccc(-n2c(=S)[nH]c3cc(C(=O)Nc4ccc(F)cc4)ccc3c2=O)c(OC)c1	inactive: 2.9%
O=C(CCN1CCCCC1)Nc1ccccc1	inactive: -6.75%
COc1ccc(S(=O)(=O)NCC2CCCN(C(=O)c3sccc3C)C2)cc1 (configuration not stated)	inactive: 0.301%
O=C1CCCC(O)=C1N=Nc1cccc(S(=O)(=O)N2CCOCC2)c1	inactive: 16.6%
CCN1CCN(C(=O)c2ccc3c(c2)N(Cc2ccccc2)C(=O)c2ccccc2S3(=O)=O)CC1	inactive: 0.945%
O=C(CSc1nnc(NC(=O)c2c(F)cccc2F)s1)NC1CC1	inactive: 15.2%
O=C(C[n+]1cc(-c2ccc(Br)cc2)n2c1CCCCC2)c1ccccc1	inactive: -2.73%
Brc1cccc(OCCCN2CCCCCC2)c1	inactive: -11.8%

Structure (SMILES)	growth rescue (activation)
Cn1nc(-c2ccc(C(=O)Nc3ccc(F)cc3)cc2)c2ccccc2c1=O	inactive: 23%
O=C(Nc1ccccn1)Nc1ccccc1[N+](=O)[O-]	inactive: 0.14%
Cn1cc([C@@H]2C[C@H]3CN(C4CCCC4)C(=O)[C@]34CCCN24)c(-c2ccccc2)n1	inactive: -6.68%
COc1ccc2cc(C(=O)C3CCCN(Cc4ccccn4)C3)ccc2c1 (configuration not stated)	inactive: 10.5%
Cc1cc(S(=O)(=O)NC(C)C)ccc1OCC(=O)Nc1ccc2c(c1)OCCO2	inactive: 7.28%
CCOC(=O)C1=C(C)NC(C)=C(C(=O)OCC)C1C(=O)OCC(=O)NCc1ccccc1OC	inactive: 7.28%
O=C(Nc1ccc(NC(=O)C2CCCCC2)nc1)c1cccs1	inactive: -10.9%
CCCS(=O)(=O)NC(=O)C1(C)CCCN(C(=O)c2ccc(F)c(Cl)c2)C1 (configuration not stated)	inactive: 1.12%
O=C(CSc1n[nH]c(=O)[nH]c1=O)Nc1ccc(SC(F)F)cc1	inactive: 8.22%
CS(=O)(=O)N1CCc2cc(C(=O)Nc3ccccc3Cl)ccc21	inactive: 23.9%
Cc1ccc(S(=O)(=O)N(C)C)cc1NC(=O)C(C)N(C)CCOc1ccc(Cl)cc1 (configuration not stated)	inactive: 9.04%
C[C@H](NC(N)=O)C(=O)N1CCN(S(=O)(=O)c2ccc3ccccc3c2)CC1	inactive: 10.9%
CC(=O)c1ccc(S(=O)(=O)NCc2ccc(C(=O)N(C)CC(=O)Nc3cccc(F)c3)cc2)cc1	inactive: -3.01%
Cn1nccc1C(=O)N1CCCC(C(=O)c2cccc3ccccc23)C1 (configuration not stated)	inactive: -12%
CC(=O)N[C@H]1[C@H](OCc2ccccc2F)O[C@H](COC(C)=O)[C@@H](OC(C)=O)[C@@H]1OC(C)=O	inactive: 27.2%
CCc1nc2c(OCC(=O)N3CCOCC3)cccn2c1N(C)C(=O)COc1ccccc1	inactive: 5.17%
CCN(c1ccc(NS(=O)(=O)c2cc(Cl)ccc2Cl)cc1)C(C)C	inactive: 5.4%
O=C(CCC(=O)Nc1ccccc1Cl)NNC(=O)c1ccco1	inactive: 8.99%
O=C(NCc1ccco1)c1ccc(C(F)(F)F)cc1	inactive: 1.9%
O=C(N/N=C/CCc1ccccc1)c1ccc(CN2c3cccc4cccc(c34)S2(=O)=O)cc1	inactive: -4.14%
O=C(Nc1cccc(Cl)c1)c1cc([N+](=O)[O-])ccc1N1CCN(CCO)CC1	inactive: 3.22%
O=C(COc1ccc(Br)cc1)Nc1ccc(CN2CCOCC2)cc1	inactive: -2.12%

Structure (SMILES)	growth rescue (activation)
CCCn1c(SCC(=O)NCc2ccc(OC)cc2)n[nH]c1=O	inactive: 8.69%
CCN(CC)c1ccc2c(cc1=O)[C@@H](NC)CCc1cc(OC)c(OC)c(OC)c1-2	inactive: -16.9%
CCc1ccccc1Nc1nc2ccccc2n1CC	inactive: 7.78%
CC1CN(S(=O)(=O)c2csc(C(=O)Nc3ccccc3)c2)CC(C)O1 (configuration not stated)	inactive: 14.9%
CC(NC(=O)C12CC3CC(CC(O)(C3)C1)C2)c1ccc(Cl)cc1Cl (configuration not stated)	inactive: 5.32%
CCC(NC(=O)Nc1ncccc1C)(C(F)(F)F)C(F)(F)F	inactive: 25.3%
S=C(NCc1ccc2c(c1)OCO2)NC1CCN(Cc2ccccc2)CC1	inactive: 3.59%
CC(C)(C)c1cc(NC(=O)C2(C)CCN2C(=O)c2ccccc2CCc2ccccc2)no1 (configuration not stated)	inactive: 17.4%
CCn1c(CC(=O)Nc2ccccc2)nnc1SCC(=O)Nc1nncs1	inactive: 5.67%
COc1cc(C(=S)N2CCCCC2)ccc1OCC(=O)Nc1ccccc1Cl	inactive: -12.8%
COc1cc(CNc2ccc(N3CCCC3)cc2)ccc1OCc1ccccc1	inactive: 26.7%
Cc1ccc(CNC(=O)Cn2c(=O)n(-c3ccccc3)c(=O)c3sccc32)cc1	inactive: -6.94%
CCCC1(c2ccccc2)NC(=O)N(C/C=C/Cl)C1=O (configuration not stated)	inactive: 9.51%
Nc1c([N+](=O)[O-])c(=O)oc2ccccc12	inactive: 11.6%
Cc1ccsc1/C=N/NC(=O)Cc1cccn1C	inactive: 30%
COc1ccccc1N=CC=C1OC(C)(C)C(C)(C)O1	inactive: -7.06%
CCOc1ccc(/C=C(\C#N)C(=O)Nc2cccnc2)cc1	inactive: -3.12%
CCN(CC)CC(=O)Nc1cccc(S(=O)(=O)N2CCCC2)c1	inactive: -32.7%
COC(=O)c1ccc2c(c1)NC(=O)CS2	inactive: 2.13%
Cc1ccc(CNC(=O)c2ccc(-n3cccc3)cc2)cc1	inactive: 10.7%
Cc1ccc(-n2ncc3c2CCCC3NC(=O)c2cnccn2)cc1C (configuration not stated)	inactive: 15.9%
CCOC(=O)C1=C(C)Nc2ccccc2S1	inactive: -10.2%

Structure (SMILES)	growth rescue (activation)
CC(C)(C)C1(O)CC(C(F)(F)F)=NN1C(=O)CCCc1ccccc1 (configuration not stated)	inactive: 8.58%
CCN(CC)S(=O)(=O)c1ccc(N/N=C/c2ccc(O)cc2)nc1	inactive: -2.11%
COc1cccc(-c2nc(-c3ccccc3)[nH]c(=O)c2C#N)c1	inactive: 5.69%
Cc1ccc(S(=O)(=O)N(CC(=O)Nc2ccccc2C(=O)O)c2ccccc2)cc1	inactive: 5.06%
Cc1ccc(C)c(NC(=O)c2cc(-c3cc(C)cc(C)c3O)n[nH]2)c1	inactive: 0.902%
CC(C)N1CCC(C)(C(=O)Nc2ccc(-n3cccc3)cc2)C1 (configuration not stated)	inactive: -7.35%
CCN(CC)S(=O)(=O)c1ccc(Cl)c(C(=O)OC2CC(C)OC2=O)c1 (configuration not stated)	inactive: 1.09%
COc1ccc(-n2c(C)nc3cc(C(=O)NCc4ccc5c(c4)OCO5)ccc32)cc1	inactive: 11.8%
Cn1c(CCN2CCOCC2)nc2cc(NS(=O)(=O)c3ccccc3)ccc21	inactive: 2.21%
O=C(CN1CCCC1)N1c2ccccc2C=Cc2ccccc21	inactive: 0.951%
COc1ccc(C(=O)O)cc1NC(=S)NC(=O)c1ccc(-c2ccc(Cl)cc2)o1	inactive: 10.8%
O=S(=O)(NCc1cn2ccsc2n1)c1ccc(Oc2ccccc2)cc1	inactive: -2.14%
Cc1sc2nc(C)n(/N=C/N(C)C)c(=O)c2c1C	inactive: -16.1%
O=C(O)CSc1nnc2n(-c3ccccc3)c(=O)c3ccccc3n12	inactive: -11.1%
CCOc1ccc2c(C)cc(=O)oc2c1OCC	inactive: 1.49%
Nc1nc(-c2cccnc2)nn1C(=O)c1ccc(F)cc1	inactive: -0.518%
Cc1ccc(NC(=O)c2ccc(Cl)nc2)cc1S(=O)(=O)N1CCOCC1	inactive: 1.92%
Cc1cc2nnc(SCC(=O)NC3CCCCC3)n2c(N)n1	inactive: -14.5%
Cc1c(NC(=O)c2ccc(NS(=O)(=O)c3ccccc3)cc2)c(=O)n(-c2ccccc2)n1C	inactive: -35.9%
CC1(C(=O)NS(=O)(=O)c2ccc(Br)cc2)CCN1C(=O)Cc1ccsc1 (configuration not stated)	inactive: 2.24%
c1ccc(OCCCc2nc(-c3ccccn3)no2)cc1	inactive: 9.51%
O=C(Nc1ccc(Cl)c(S(=O)(=O)N2CCOCC2)c1)c1ccncc1	inactive: -12.3%

Structure (SMILES)	growth rescue (activation)
N#C/C(=C/c1ccc(OCc2ccc(C(=O)O)cc2)c(Br)c1)c1cccc(F)c1	inactive: 12.8%
O=C(O)CCN1c2cccc3cccc(c23)S1(=O)=O	inactive: -7.33%
Cn1nc(C(=O)NNC(=O)c2cccc(Cl)c2)c2ccccc2c1=O	inactive: 18.6%
O=C(NCCCN1CCN(c2ccc(F)cc2)CC1)NC12CC3CC(CC(C3)C1)C2	inactive: -3.04%
Cc1cc(=O)[nH]c(N/N=C/c2sccc2C)n1	inactive: 20%
O=C(Cc1ccccc1)Nc1ccc(F)cc1	inactive: 10.3%
Cc1cc(C=O)c(C)n1-c1ccc(Cl)c(C(=O)O)c1	inactive: -0.695%
CCN(C(=O)COC(=O)c1cnccn1)c1cccc2ccccc12	inactive: 9.83%
CCOCCCN(CC(=O)NC1CCCC1)C(=O)C(=O)Nc1ccc2c(c1)OCCO2	inactive: 4.48%
CC(C)(C)C1(O)CC(C(F)(F)F)=NN1C(=O)Cc1ccc([N+](=O)[O-])cc1 (configuration not stated)	inactive: 10.9%
COc1cc(OC)cc(C(=O)NC(=S)Nc2ccc(NC(=O)c3ccco3)cc2)c1	inactive: 12.6%
CCCc1cc(=O)[nH]c(SCC(=O)c2cc(C)n(-c3cc(C)on3)c2C)n1	inactive: 19.5%
CC(=O)C(Cc1ccccc1)NC(=O)COc1ccc2c(c1)OCO2 (configuration not stated)	inactive: 31.4%
Cc1ccc(-c2nc3ccccc3nc2-c2ccccc2)cc1	inactive: 7.97%
CCCNC(=O)Nc1ccc(F)c(Cl)c1	inactive: 11.9%
O=S(=O)(NC1c2cccc3cccc(c23)C1N1CCN(CCO)CC1)c1ccccc1 (configuration not stated)	inactive: 0.257%
COC(=O)c1ccc(-c2noc(CN(C)CCC3CCCCO3)n2)cc1 (configuration not stated)	inactive: 7.08%
O=C(O)c1ccc(Cn2cnc3sc4c(c3c2=O)CCCC4)cc1	inactive: 17.2%
CC(C)[C@H](NC(=O)c1ccccc1)C(=O)NCCc1ccccc1	inactive: -16.9%

From PubChem BioAssay AID1347073 (National Center for Advancing Translational Sciences (NCATS), 2019)
